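Dose response: 5 concentrations. Exposure: 48 h. Format: 96-well plates. Endpoint: linear interpolation; highest concentration if not reached. Here, GI50 denotes the concentration required for 50% inhibition of growth.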 Not every entry of the source has a single result; some have several. This is not the full list of results. The source may hold further records. Values that stand side by side are repeated measurements across runs, samples, wells, individuals or studies. What stands in brackets tells the records apart. The letters are not those of the source and start again with each entry.
Tested on: MDA-MB-468 breast
Assay: NCI anticancer screen, dose series, 48 h

## COc1cccc(-c2cc(=O)c3cc(N(C)C)ccc3[nH]2)c1
  GI50: 2.04 µM [sample A, 1 test] and 192 nM [sample B, 1 test]

— PubChem BioAssay (NCI)
